Like-named read-outs stand apart in the source and are kept apart here.
Tests used:
[1] = test system: Ambrosia elatior (AMBEL, common ragweed), PPO resistant biotype 4 that contains the R98L mutation (w.6); details: scale 0 to 100
Excerpt: (§1) The culture containers used were plastic flowerpots containing loamy sand with approximately 3.0% of humus as the substrate. The seeds of the test plants were sown separately for each species and/or resistant biotype. For the pre-emergence treatment, the active ingredients, which had been suspended or emulsified in water, were applied directly after sowing by means of finely distributing nozzles. The containers were irrigated gently to promote germination and growth and subsequently covered with transparent plastic hoods until the plants had rooted.
(§2) This cover caused uniform germination of the test plants, unless this had been impaired by the active ingredients. For the post-emergence treatment, the test plants were first grown to a height of 3 to 15 cm, depending on the plant habit, and only then treated with the active ingredients which had been suspended or emulsified in water. For this purpose, the test plants were either sown directly and grown in the same containers, or they were first grown separately as seedlings and transplanted into the test containers a few days prior to treatment. Depending on the species, the plants were kept at 10-25° C. or 20-35° C., respectively. The test period extended over 2 to 4 weeks. During this time, the plants were tended, and their response to the Individual treatments was evaluated.
(§3) The evaluation was carried out by using a scale from 0 to 100. 100 means no emergence of the plants or complete destruction of at least the above-ground parts, and 0 means no damage, or normal course of growth.
(§4) The plants used in a first greenhouse experiment were of the following species and biotype (Ambrosia eliator mentioned below is to be understood being a variety of Ambrosia artemisilfolia): […]

[2] = test system: Ambrosia elatior (AMBEL, common ragweed), PPO resistant biotype 3 that contains the R98L mutation (w.5); details: scale 0 to 100
Excerpt: as §1, §2, §3, §4

CCOC(=O)COc1ncccc1Oc1cc(-n2c(=O)cc(C(F)(F)F)n(C)c2=O)c(F)cc1Cl [compound (I).1]
100%: Weed control (%) w.6 ([1]; use rate 1 g/ha) | Weed control (%) w.6 ([1]; use rate 2 g/ha) | Weed control (%) w.5 ([2]; use rate 1 g/ha) | Weed control (%) w.5 ([2]; use rate 2 g/ha)

From patent US11766044B2, “Method for controlling PPO resistant weeds” (BASF SE, priority 2016, dated 2023)
